B1: OR4K15 (parent)
chain: GUUAACGGUCAUAGGCCAUGGAAACUAGGAGCACCAUUUCGCUGCCAGUGAAGAAAUGAACAAAGAAAAUCUGGGCCAGGCAGGCAUCAAAAGAAAUAGUCUUGCGCUCAACCAGAAAGUCUGUAAUCAUUUUAAGGGUA

The source gives no read counts; variants with many changes may rest on few reads.

In the series the parent is B1. As to the kind of experiment: self-cleavage, relative activity (ratio to wild type); higher = more cleavage; in vitro, sequencing; the parent is a self-cleaving ribozyme.
With A78G U87C A91G U127C, the self-cleavage was determined as 0.03.
As for A91G U120C C121U, the figure is 2.55; as for A89C U100C A116G, 1.99; as for A78U A82G U122C, 0.08.
As for A78G U124C U131C, the self-cleavage amounted to 0.18.
In the case of A95G U100A G104A A126G it was 0.03; in that of A96G A98G C121A, 1.23; in that of A78G A94G A117G, 0.55.
In the case of U87C U100C A110G U130C it was 0.26; in that of A91G A117G U130C, 0.65; in that of A92G U130C U133C, 1.6.
As for A82G G83A U100C, the figure is 0.28; as for C81A C85G A89G, 0.19.
U87A A89G A116G: the self-cleavage was 0.71.
In the case of A78G A110G A135G it was 0.04.
In the case of A89G U103C A117G U122A A126G it was 0.53.
In the case of U97C A117G U131C it was 0.26; in that of A86G U131C U132A, 0.8; in that of A96U A114U A118G, 0.07.
For A91G U103C U108C, the self-cleavage was 0.01.
As for A82G A94U A98U, the figure is 1.68; as for A78U U87C U102C, 1.75; as for A95G A98U A116G, 0.44.
For the variant U87A A114C U122C, the self-cleavage was 0.
Regarding A89U U100A A117G, the self-cleavage was 0.75.
As for A92G A117G U132A, the self-cleavage was 1.14.
A86G A117G U124A: the self-cleavage was 1.02.
As for U97C A111G A116C, the self-cleavage was found to be 0.
In the case of A78G A86G U100C U131C it was 0.25.
As for A78G A116G U132C, the figure is 0.16; as for A94G U108A A118G, 0; as for A89U A111G A116U A135G, 0.
For U97G U124C A125G, the self-cleavage worked out at 0.7.
As for A82G U120C A129G, the figure is 0.21; as for G79A A86G U132C, 0.08; as for U87C A126G U127C, 0.43.
As for A90C U102C U103C, the figure is 0.19; as for A78G A94G U122C A125G A135G U139C, 0.
As for U97C U102A U103C, the figure is 0.04.
Take A94G A111G A117G: the self-cleavage amounted to 0.02.
On to A94G U102C A129G, for which the self-cleavage is 2.5.
As for A82G C85G A92G, the figure is 0.13.
In the case of A82U U100C U108G it was 0.01; in that of G83U A89G U127C, 0.56; in that of A95G A116G A129U U133A, 1.52.
In the case of A95G U102C U120C A135G it was 2.1; in that of A89G A95G A96G U102G A114G A125G, 0.02.
As to A95G U102C A129G U132G, the self-cleavage turned out to be 2.39.
As for U87C A89U A91G A96G, the figure is 1.52.
As for A78U A95G C128A, the figure is 0.49; as for A91G U130C U131C, 0.54.
In the case of A82G A111G A126G it was 0.02; in that of U87C U100G C112G, 0.02.
Regarding U87C C105U U120C, the self-cleavage is 0.02.
As for A90G A111G A116G, the self-cleavage is 0.01.
As for A91G A116G U139G, the figure is 0.6; as for A94G A114U A116U, 0.01; as for A91U A114G A126G, 0.08.
In the case of A78G A92G A111U it was 0.02.
As for A90G A96G U102C, the figure is 1.9.
With A90G A114U U127A, the self-cleavage came out at 0.04.
As for A91G A117G A126G, the figure is 0.97.
As for U87G A90G A94G, the figure is 0.51; as for A90G A110U U120A, 1.31; as for A90G A117G G138A, 1.81.
As for A86U A96G G106U U127C, the figure is 0.01; as for A95G C105G A110G, 0.02.
Take A92G A111G A118G: the self-cleavage turned out to be 0.
In the case of A90U A92G U100C it was 2.14.
In the case of A91U A110G U124C it was 0.09; in that of A82G U102C A140G, 0.93; in that of A78U A86U U127C, 0.27.
In the case of A91G G104C U108C it was 0; in that of A82G U102C U108C, 0.01.
A95G A96G U132C: the self-cleavage came out at 1.76.
In the case of A89G A91G A92G G93A it was 1.55; in that of A91G A126G A129G, 0.66.
In the case of A82G A91G U100C U139C it was 1.84.
As for A90G U108C U124A U127A U132C, the figure is 0; as for A91G A92G U102A, 0.22.
With A86C A92G U108C U122G, the self-cleavage is 0.02.
For the variant A78C U124C A129G, the self-cleavage came to 0.12.
For the variant A86U A94U U132A, the self-cleavage is 1.64.
As for A95G A96G U100C U122C U124A, the figure is 1.26.
In the case of A78U A94G U124C it was 0.15.
On to A86G A92G C107U, for which the self-cleavage worked out at 0.01.
As for A89G A96G U122C, the figure is 1.22.
As for A89C A94G A96G U103A, the figure is 0.74; as for C77U U103C A134G, 2.92; as for A92C A95G C105A, 0.02.
As for A78G A92G A135G, the figure is 0.12.
For the variant U87C A89G G123A, the self-cleavage was determined as 0.69.
In the case of A82U U87C U102C U124C, the self-cleavage is 0.18.
In the case of A89G U103C A111G, the self-cleavage is 0.02.
In the case of A82U A86U A89U A114G A116G it was 0.05.
Turning to G79U A125G A135G, the self-cleavage stood at 0.02.
For A78G U100C U132C, the self-cleavage turned out to be 0.25.
In the case of U87C A92G U100C U102C U103C A126G it was 0.04; in that of A90G A117U A118G, 0.16.
Consider A94G C109G A125G, for which the self-cleavage came out at 0.
As for A82U A90G A114U, the figure is 0.02; as for A98U A111G A116G U130C, 0; as for C81U A116U A126G, 0.03.
As for A96G U108A G119U, the figure is 0; as for U87G A96G U122C A125U U132G, 0.21; as for A78U U108C C109A A116G, 0.01.
As for U87A U120C A135G, the figure is 1.39.
In the case of A78C A91G U100C, the self-cleavage turned out to be 0.3.
As for A90C A117G U122C, the figure is 1.77; as for A94G A110G A114U A126G, 0.01; as for C85U A92G A118G, 1.18.
On to A86G A94G C105A A125U, for which the self-cleavage turned out to be 0.
As for U87C A90G A111G, the figure is 0.01; as for A90G U97C U131C A135G, 0.15.
In the case of A89U A117G U130C A140U, the self-cleavage came out at 0.23.
In the case of A90U A111G A118G it was 0; in that of A86U A90G U103C, 0.97.
In the case of A89C U102C A114U it was 0.19; in that of U87A A96U U108A C128U, 0.02; in that of A94G A96G U97A U108C, 0.03.
As for U97C C109A A135G, the figure is 0.11; as for A82G G83U A117G U130A, 0.07; as for G80A U103C G106C A114G, 0.
As for A78U A96U U102C A111U A114G, the self-cleavage is 0.
In the case of A82U A114G U132A, the self-cleavage was 0.05.
As for A95G U120G A125U, the figure is 2.57.
For the variant G83U A126U A129G, the self-cleavage was 0.26.
In the case of A91G A95G A140C it was 1.58; in that of A94G U102C C105U U130C, 0.41.
As for A90G C107U A110U A116G A118C A126G A135G, the figure is 0; as for A78G A114G A117G, 0.09; as for A98G U102C A135U, 0.35.
As for A91U U124A U130C, the figure is 0.33.
As to A91G A94G U120C, the self-cleavage worked out at 0.06.
As for A90G U130C U139C, the figure is 0.12; as for A94G U103C A117U, 1.09; as for A94G U103C A117G, 0.58.
In the case of U97C U130C G138C U139C it was 0.18; in that of U97C U102A U120G, 0.47; in that of A86U A96U U102C A118G, 1.58.
Regarding A91G A92G U122C, the self-cleavage is 1.08.
In the case of A96G A117G U122C it was 1.58; in that of A91U U102C A126G, 1.79.
As for A92G A94G U103C, the figure is 1.18; as for G80A A94G U108G, 0.01; as for A91G U103C A140G, 0.33.
In the case of A91G U108C U130C it was 0.01.
In the case of A94G U103C A126G, the self-cleavage worked out at 0.05.
In the case of A78G U108C U124C it was 0; in that of A78G A117G U132C, 0.19.
As for U87C A116U A117G A118G A129C, the figure is 0.02; as for A91G A111G U132C, 0.01; as for A90G U108C A125G A140G, 0.01.
As for A91U A114U U132C, the figure is 0.09; as for A78U A90G A92G G137U, 0.26.
C85A A95G A98G: the self-cleavage is 1.12.
As to A96U A117G U122G, the self-cleavage worked out at 2.4.
As to C77U A86G A114G, the self-cleavage amounted to 1.02.
Take A96G A111G A118G: the self-cleavage came to 0.
As for A94G A110G U122A A140U, the figure is 0; as for U97C U120C U122A U124A A126G, 0.39.
As for A91G A110G A140G, the self-cleavage came to 0.14.
In the case of A89U A118G G138A it was 1.76; in that of A92G A118G U122C U133A, 0.79.
As for A86G A90G G137U, the figure is 0.87.
In the case of A78U A95G A129G it was 0.31.
Take A94G U100G C105A A135U: the self-cleavage worked out at 0.01.

Source of the values: the RNAGym collection of RNA variant scans (doi:10.7554/elife.90254).
